# From the supplement of paper PMC7580552
# Structures can show the parent of a compound that is named as a salt. Some of the results follow. Repeats are few or missing, and single values can be far off.
# System: Escherichia coli W3110
# Assay: planktonic growth (OD600) relative to untreated control; higher = more growth
# Details: 10 µM; 20-24 h; 30 °C; TB
# 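Also: stationary (unshaken) cultures in 96-well plates, started at OD600 0.05 from mid-exponential cells, with compounds supplied from DMSO stocks.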
row,SMILES,planktonic growth
1,COc1cc(C(=O)NS(=O)(=O)c2ccccc2C)ccc1Cc1cn(C)c2ccc(NC(=O)OC3CCCC3)cc12 [Zafirlukast],112%
2,NS(=O)(=O)c1cc2c(cc1Cl)N=CNS2(=O)=O [Chlorothiazide],92%
3,CN[C@H](CC(C)C)C(=O)N[C@H]1C(=O)N[C@@H](CC(N)=O)C(=O)N[C@H]2C(=O)N[C@H]3C(=O)N[C@H](C(=O)N[C@H](C(=O)O)c4cc(O)cc(O)c4-c4cc3ccc4O)[C@H](O)c3ccc(c(Cl)c3)Oc3cc2cc(c3O[C@@H]2O[C@H](CO)[C@@H](O)[C@H](O)[C@H]2O[C@H]2C[C@](C)(N)[C@H](O)[C@H](C)O2)Oc2ccc(cc2Cl)[C@H]1O [Vancomycin hydrochloride],66%
4,CNS(=O)(=O)Cc1ccc2[nH]cc(CCN(C)C)c2c1 [Sumatriptan succinate],104%
5,CC(C)COCC(CN(Cc1ccccc1)c1ccccc1)N1CCCC1 (stereo not drawn) [Bepridil hydrochloride],111%
6,NC(=O)c1ncn([C@@H]2O[C@H](CO)[C@@H](O)[C@H]2O)n1 [Ribavirin],94%
7,CCOC(=O)[C@H](CCc1ccccc1)N[C@@H](C)C(=O)N1[C@H](C(=O)O)C[C@@H]2CCC[C@@H]21 [Ramipril],92%
8,CCOc1ccc2c(c1)C(C)=CC(C)(C)N2 [Ethoxyquin],99%
9,Cc1ccnc2c1NC(=O)c1cccnc1N2C1CC1 [Nevirapine],102%
10,CN(C)CCC=C1c2ccccc2CCc2ccccc21 [Amitryptiline hydrochloride],100%
11,Cc1[nH]c(=O)c(C#N)cc1-c1ccncc1 [Milrinone],89%
12,Cn1c(=O)c2[nH]cnc2n(C)c1=O [Aminophylline],92%
13,CS(=O)(=O)c1ccc(C2=C(c3ccccc3)C(=O)OC2)cc1 [Rofecoxib],103%
14,CN1C(C(=O)Nc2ccccn2)=C(O)c2sccc2S1(=O)=O [Tenoxicam],98%
15,Cc1ncc([N+](=O)[O-])n1CC(O)CCl (stereo not drawn) [Ornidazole],100%
16,Cc1cccc(C)c1NC(=O)C1CCCCN1C (stereo not drawn) [Mepivacaine hydrochloride],102%
17,C=C[C@H]1CN2CC[C@H]1C[C@@H]2[C@@H](O)c1ccnc2ccc(OC)cc12 [Quinidine hydrochloride monohydrate],97%
18,C[C@]12CC[C@H]3C(=CCc4cc(O)ccc43)[C@@H]1CCC2=O [Equilin],111%
19,CO[C@@]1(NC(=O)Cc2cccs2)C(=O)N2C(C(=O)O)=C(COC(N)=O)CS[C@@H]21 [Cefoxitin sodium salt],23%
20,CC(=O)c1ccc2c(c1)N(CCCN1CCC(CCO)CC1)c1ccccc1S2 [Piperacetazine],106%
21,O=C(CCCN1CCC(O)(c2ccc(Br)cc2)CC1)c1ccc(F)cc1 [Bromperidol],86%
22,COc1cc2c(cc1OC)C(=O)C(CC1CCN(Cc3ccccc3)CC1)C2 (stereo not drawn) [Donepezil hydrochloride],99%
23,CCCCC(CC)CN1CN(CC(CC)CCCC)CC(C)(N)C1 (stereo not drawn) [Hexetidine],92%
24,COCC1=C(C(=O)OC(C)OC(=O)OC(C)C)N2C(=O)[C@@H](NC(=O)/C(=N\OC)c3csc(N)n3)[C@H]2SC1 (stereo partly drawn) [Cefpodoxime proxetil],97%
25,CCN(CC)CCOC(=O)C(c1ccccc1)C1CCCCC1 (stereo not drawn) [Drofenine hydrochloride],92%

row,SMILES,planktonic growth
1,COc1cc(Cc2cnc(N)nc2N)cc(OC)c1OC [Trimethoprim],50%
2,CNCCC(Oc1ccccc1OC)c1ccccc1 (stereo not drawn) [Nisoxetine hydrochloride],94%
3,CCCCC(C)(O)C/C=C/[C@H]1[C@H](O)CC(=O)[C@@H]1CCCCCCC(=O)OC (mixture of isomers) [Misoprostol],97%
4,COc1ccccc1O [Guaiacol],90%
5,O=C(O)CCC(=O)Nc1ccc(S(=O)(=O)Nc2nccs2)cc1 [Succinylsulfathiazole],92%
6,COc1cnc(NS(=O)(=O)c2ccc(N)cc2)nc1 [Sulfameter],67%
7,Cc1cccc(CN2CCN(C(c3ccccc3)c3ccc(Cl)cc3)CC2)c1 (stereo not drawn) [Meclozine dihydrochloride],99%
8,CCOC(=O)C1=C[C@]2(CC)CCCN3CCc4c(n1c1ccccc41)[C@@H]32 [Vinpocetine],93%
9,C[C@]12CC[C@@H]3c4ccc(O)cc4CC[C@H]3[C@@H]1CCC2=O [Estrone],95%
10,COc1cc(C(=O)NC2CCCNC2)cc(OC)c1OC (stereo not drawn) [Troxipide],118%
11,CN(C)[C@@H]1C(O)=C(C(N)=O)C(=O)[C@@]2(O)C(O)=C3C(=O)c4c(O)ccc(Cl)c4[C@@](C)(O)[C@H]3C[C@@H]12 [Chlortetracycline hydrochloride],21%
12,CC(=O)N(CC(C)C(=O)O)c1c(I)cc(I)c(N)c1I (stereo not drawn) [Iocetamic acid],94%
13,c1ccc2[nH]c(-c3cscn3)nc2c1 [Tiabendazole],96%
14,CN1CC2c3ccccc3Oc3ccc(Cl)cc3C2C1 (stereo not drawn) [Asenapine maleate],93%
15,CC1CS(=O)(=O)CCN1/N=C/c1ccc([N+](=O)[O-])o1 (stereo not drawn) [Nifurtimox],90%
16,COc1ccc(-c2cc(=O)c3c(O)cc(O[C@@H]4O[C@H](CO[C@@H]5O[C@@H](C)[C@H](O)[C@@H](O)[C@H]5O)[C@@H](O)[C@H](O)[C@H]4O)cc3o2)cc1O [Diosmin],97%
17,CCCCCCCN(CC)CCCC(O)c1ccc(NS(C)(=O)=O)cc1 (stereo not drawn) [Ibutilide fumarate],108%
18,CCOC(=O)OC(C)OC1=C(C(=O)Nc2ccccn2)N(C)S(=O)(=O)c2ccccc21 (stereo not drawn) [Ampiroxicam],93%
19,CC(=O)[C@H]1CC[C@H]2[C@@H]3C[C@H](C)C4=CC(=O)CC[C@]4(C)[C@H]3[C@@H](O)C[C@]12C [Medrysone],99%
20,CCCCNC(=O)NS(=O)(=O)c1ccc(C)cc1 [Tolbutamide],86%
21,O=C(O)c1cc(-c2ccc(F)cc2F)ccc1O [Diflunisal],108%
22,CC(C)(C)NC[C@H](O)c1ccc(O)c(CO)c1 [Levalbuterol hydrochloride],99%
23,CCn1cc(C(=O)O)c(=O)c2cnc(N3CCCC3)nc21 [Piromidic acid],111%
24,O=S(=O)(O)CCS [Mesna],105%
25,CNCCC(Oc1ccc(C(F)(F)F)cc1)c1ccccc1 (stereo not drawn) [Fluoxetine hydrochloride],99%

row,SMILES,planktonic growth
1,Cc1nc2n(c(=O)c1CCN1CCC(c3noc4cc(F)ccc34)CC1)CCCC2 [Risperidone],94%
2,CC(=O)Nc1ccc(CC(=O)O)cc1 [Actarit],95%
3,C[C@@H](CN1CC(=O)NC(=O)C1)N1CC(=O)NC(=O)C1 [Dexrazoxane hydrochloride],108%
4,OCc1cc(C(O)CNCCCCCCOCCCCc2ccccc2)ccc1O (stereo not drawn) [Salmeterol],98%
5,CC(=O)OCC(=O)[C@@]12N=C(C)O[C@@H]1C[C@H]1[C@@H]3CCC4=CC(=O)C=C[C@]4(C)[C@H]3[C@@H](O)C[C@@]12C [Deflazacort],92%
6,O=C(O)Cc1sc(-c2ccccc2)nc1-c1ccc(Cl)cc1 [Fentiazac],93%
7,CCN1CC(CCN2CCOCC2)C(c2ccccc2)(c2ccccc2)C1=O (stereo not drawn) [Doxapram hydrochloride],106%
8,CCC1=C(C)CN(C(=O)NCCc2ccc(S(=O)(=O)NC(=O)N[C@H]3CC[C@H](C)CC3)cc2)C1=O [Glimepiride],100%
9,O=C1CCc2cc(OCCCCc3nnnn3C3CCCCC3)ccc2N1 [Cilostazol],95%
10,CCS(=O)(=O)CCn1c([N+](=O)[O-])cnc1C [Tinidazole],103%
11,CCCCOc1cc(C(=O)NCCN(CC)CC)c2ccccc2n1 [Dibucaine],99%
12,COc1ccc2cc([C@@H](C)C(=O)O)ccc2c1 [(R) -Naproxen sodium salt],100%
13,Nc1nc(=O)c2c([nH]1)NC[C@@H](CNc1ccc(C(=O)N[C@@H](CCC(=O)O)C(=O)O)cc1)N2C=O [Folinic acid calcium salt],94%
14,CCCCC(CC)CNC(=N)NC(=N)NCCCCCCNC(=N)NC(=N)NCC(CC)CCCC (stereo not drawn) [Alexidine dihydrochloride],24%
15,COC(=O)[C@@H]1[C@H]2C[C@H]3c4[nH]c5ccccc5c4CCN3C[C@@H]2CC[C@@H]1O [Yohimbine hydrochloride],95%
16,CC1(C)NC(=O)N(c2ccc([N+](=O)[O-])c(C(F)(F)F)c2)C1=O [Nilutamide],108%
17,CN(CCOc1ccc(CC2SC(=O)NC2=O)cc1)c1ccccn1 (stereo not drawn) [Rosiglitazone Hydrochloride],97%
18,CCC(=O)OCC(=O)[C@@]1(OC(=O)CC)[C@H](C)C[C@H]2[C@H]3[C@H]([C@@H](O)C[C@@]21C)[C@@]1(C)C=CC(=O)C=C1C[C@H]3Cl [Alclometasone dipropionate],96%
19,CC(N)C12CC3CC(CC(C3)C1)C2 (stereo not drawn) [Rimantadine Hydrochloride],100%
20,COc1ccc(C[C@@H]2c3cc(OC)c(OC)cc3CC[N@+]2(C)CCC(=O)OCCCCCOC(=O)CC[N@@+]2(C)CCc3cc(OC)c(OC)cc3[C@H]2Cc2ccc(OC)c(OC)c2)cc1OC [Cisatracurium besylate],107%
21,Nc1cc(-c2ccncc2)c[nH]c1=O [Amrinone],104%
22,Brc1c(NC2=NCCN2)ccc2nccnc12 [Brimonidine L-Tartrate],94%
23,CN(C)CCOC(=O)COc1ccc(Cl)cc1 [Meclofenoxate hydrochloride],105%
